Experimental data taken from the supplement of paper PMC3334620.
Over roughly 33,000 sequences, “E-score (-0.5 to 0.5)” has its median near -0.035; the highest 2% begin near 0.34. Some of the results follow.

Target: T1, Mot3 (UniProt P54785)
T1 sequence: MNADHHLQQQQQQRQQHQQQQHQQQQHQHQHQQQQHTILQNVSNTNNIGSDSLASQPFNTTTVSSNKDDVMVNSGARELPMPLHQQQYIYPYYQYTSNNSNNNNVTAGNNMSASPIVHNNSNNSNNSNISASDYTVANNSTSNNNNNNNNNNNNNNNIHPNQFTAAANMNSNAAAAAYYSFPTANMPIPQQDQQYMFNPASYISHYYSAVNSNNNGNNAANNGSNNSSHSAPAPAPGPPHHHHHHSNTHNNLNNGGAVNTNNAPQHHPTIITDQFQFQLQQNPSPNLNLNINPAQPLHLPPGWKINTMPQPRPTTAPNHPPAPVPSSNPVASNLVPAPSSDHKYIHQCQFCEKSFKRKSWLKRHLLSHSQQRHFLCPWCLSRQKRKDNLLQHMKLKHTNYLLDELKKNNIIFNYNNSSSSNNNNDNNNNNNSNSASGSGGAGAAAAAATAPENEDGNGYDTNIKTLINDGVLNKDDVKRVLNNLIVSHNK
Assay: PBM E-score (8-mer binding enrichment) (E-score (-0.5 to 0.5)); higher = stronger / more preferred TF binding; most listed sequences are background and not binding sites
Details: protein concentration: 200 nM; construct: GST-full length
How it was run: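 For each ungapped eight-base word taken together with its reverse complement, the Universal PBM Analysis Suite assigned an E-score. Binding data came from GST-tagged yeast transcription factors, applied at about 100-200 nM, on universal all-10-mer Agilent arrays made double-stranded by primer extension. Fluorescent anti-GST marked bound protein, and scans were normalised with masliner.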

Sequence | PBM E-score
GCATATCC | -0.113
CGTCCAGA | -0.345
GAAGCACC | -0.13
ATCTTGCA | 0.0843
CCGGACAC | -0.163
CCGTGCAG | -0.0427
GACTACTC | 0.0874
CATAATAA | 0.145
AATTGCGT | 0.194
ACTCTCAC | -0.181
AGATACTG | -0.00245
AAATGTGA | 0.117
AGCGCTCA | -0.252
CCTTGTCA | 0.179
AATGACGA | 0.119
AATATTGC | 0.107
CACACAGC | 0.224
CCTGAATA | 0.121
ATATGTAC | 0.274
CGCGCACC | -0.0408
AGAGCAGA | -0.0286
GAACGCGA | 0.153
CGAATTCG | -0.137
CAGAGGCA | 0.299
AGACGGAT | -0.0845

Sequence | PBM E-score
ATAGAAAA | 0.0494
AAGCCGCT | -0.228
ACCGTATA | -0.0379
GCCAAGGC | 0.0656
CTAAAAAG | 0.0983
CAGTGTCG | 0.0411
AGATCGAC | -0.151
TCCACACA | 0.0338
AAATTCGA | 0.0174
GGCATTGA | -0.0931
ATGCACTG | -0.0118
AATATTTA | 0.122
CACGATAG | 0.0203
AGTTACAG | 0.0836
ACACGGTC | 0.349
AGCGGAAT | -0.148
CGAACGCC | -0.101
GATCATTA | 0.103
GCAGTCAA | -0.202
AGCTGGGC | -0.224
CCAAATGA | 0.0561
GTCGTAAA | 0.213
AAAGTGTG | 0.0664
AAAACTCC | -0.12
CCAACACC | -0.148

Sequence | PBM E-score
CACTACTC | -0.0087
ACCAAAGA | 0.108
TAGCAATA | -0.00501
ATTGGGAG | -0.145
CGTATAGC | -0.0266
AGAACAAT | 0.25
CCGGGACC | -0.322
AAGACCAT | -0.234
GAAGGGAC | -0.241
ATGTTTCA | 0.0505
CCTATAGA | 0.191
CCCCGAAG | -0.083
AAGCTGAT | 0.0408
GAGATCAA | 0.0475
CGTATATA | 0.163
CTCACAAG | -0.0197
AATTTTCG | 0.0714
AGGACAAG | -0.0114
GGCTACAC | 0.19
ACAAGTAC | 0.248
CACAGCAC | 0.2
GACAGGTA | 0.25
AGGGAGAG | -0.228
AAAGACGA | -0.0386
GGATCGCC | -0.0978

Sequence | PBM E-score
GGATCAAA | -0.025
CATTGAGG | -0.135
AGCACTAA | -0.138
AGGTAGGC | 0.0978
CACGTCGA | 0.144
CCTTGGTA | 0.239
ATCCATGG | -0.163
CTAAATCC | -0.219
GCTTGTAA | 0.318
AGTTCTCC | -0.261
AACGCTAA | -0.0213
CTTTGGTC | 0.0136
CGGGATTC | -0.155
ATGCATTG | 0.00346
AGGGGCCG | -0.245
CTCCTAAG | -0.0118
GGGTGATA | -0.292
CCGATAAA | -0.181
CACAGACA | 0.141
AACAGGTC | 0.0905
ATGAAAAC | 0.148
TGACAGAA | 0.0993
ACTACACA | 0.331
CAGATGGA | -0.102
CGCGATAA | 0.0448

Sequence | PBM E-score
AGAGTCCG | -0.163
AGAGTTCC | -0.135
ACCTTGTC | -0.0136
ACTCCGTG | -0.136
GATATACA | 0.229
GACCATCC | -0.292
CGAGGTCC | -0.25
AAACCTCT | -0.128
ATTCCATG | 0.0576
CTATGCCC | -0.264
ATTACGCA | 0.354
AAACTGGG | 0.00591
GCACACCA | 0.143
ATTCTTCC | -0.101
CCCACTCC | -0.263
AAGCCACA | -0.0593
CATCTCCG | 0.0455
CCGCCATA | -0.116
GCACTATA | 0.141
AACGACCC | -0.0298
ATGTCTGC | 0.0123
TCGCGTCA | 0.127
CCCGGAGC | -0.147
GTCCATTA | -0.0171
CATGGAAG | 0.0189

Sequence | PBM E-score
ATGACGGG | -0.146
ATTACATG | 0.435
ACTCTGTA | 0.127
AAAGTAGC | -0.0505
AAGCAATC | -0.0271
ATAGGTTC | 0.271
GTTCGAAA | -0.0506
AAGTTTTA | 0.112
CTTATGAA | -0.068
TACAGTAA | 0.194
CGTTATCA | 0.0865
AACCCCCT | -0.0403
AAGACAGC | -0.123
ATTTTAAC | 0.234
ATTCACCC | -0.106
TCCCGGAA | -0.147
AGCTTCAA | -0.127
AGAATCCT | 0.109
TAGTGTCA | -0.167
TACGTTGA | 0.216
CGCTCTCA | -0.205
AATAGGAT | -0.00596
GGAATTAC | 0.172
CTCGTTTC | -0.105
CCGTAATA | 0.121

Sequence | PBM E-score
CGAGGCAC | 0.411
CGAGAGAA | -0.186
TGTTCGAA | 0.0393
AACATGAA | 0.305
ACTCGTTG | 0.0492
GTGGGGTA | -0.0943
GAGGTTGC | -0.117
AGAACTCC | -0.112
CCCTTCGA | 0.0666
GAAATCGA | -0.0774
GGAACCGA | 0.143
CGCCCGGC | -0.224
AGGGCGTG | -0.0673
CCCTCGTA | 0.0162
AGTATATG | -0.0575
CATTGACA | 0.247
GGAGTACC | 0.0621
ATGAAATC | 0.0905
ACACCCGA | -0.0126
GCTGAACC | -0.201
AAGATTCC | 0.0635
ATATAGTC | 0.0973
